Measurements as given in PubChem BioAssay AID463173 (ICCB-Longwood Screening Facility, Harvard Medical School, 2010).
Among all 52,000 compounds or so, about 4,300 (8.3%) were called active. Rule as the data show it: active = survival mostly below about 52% (no sharp cut-off); inactive = mostly above about 56%. Some of the results follow.

The compounds below were run on DeltatarO mutant (assay: growth inhibition of S. aureus wild type versus tarO mutant, primary screen, teichoic acid synthesis inhibitors, RN4220, OD600 (AID 463173)). Settings: OD600, 18 h, active compounds read low, screened at 18.75 µg/mL (by protocol).

Row | Compound | survival
1 | O=C(CSc1nccn1Cc1ccc(F)cc1)Nc1ccc2c(c1)OCCO2 | inactive: 67%
2 | COc1ccc(CCCc2nnc(SCC(=O)Nc3ccc(C)cc3C)o2)cc1 | inactive: 55%
3 | CCN(CC)S(=O)(=O)c1cc(-c2onc(C)c2C)ccc1OC | inactive: 85%
4 | CCN(CCCNC(=O)c1cc2c(=O)n(CC)c3ccccc3c2s1)c1ccccc1 | active: 47%
5 | COCCCNC(=O)c1c(NC(=O)Cc2coc3cc(C)cc(C)c23)sc2c1CCCC2 | inactive: 72%
6 | CCc1ccc(CNC(=O)CSc2cc(=O)n(C)c3ccc(Cl)cc23)cc1 | active: 31%
7 | CC(NC(=O)CCSCc1ccccc1F)c1ccccc1 (stereo unspecified) | inactive: 100%
8 | O=C(c1ccc2c(c1)N(Cc1ccccc1F)C(=O)c1ccccc1S2(=O)=O)N1CCCC1 | inactive: 92%
9 | COc1ccc(-c2cc(-c3ccccc3)nc(SCC(=O)CC(=O)OC(C)C)c2C#N)cc1 | inactive: 55%
10 | CC(=O)N1CCC(N(C(=O)Nc2c(F)cccc2F)C(C)C)CC1 | inactive: 72%
11 | Cc1ccc(N(C)C(=O)c2cnc(N3CCOCC3)c3ccccc23)cc1C | inactive: 90%
12 | COc1ccc(C(C(C#N)C#N)C2C(=O)N(Cc3ccccc3)N=C2C)cc1 (stereo unspecified) | inactive: 87%
13 | O=C(NCc1cccc(Cl)c1)C1CCN(C(=O)c2sccc2-n2cccc2)CC1 | inactive: 88%
14 | CCc1ccc(C(=O)c2cn(CC(=O)Nc3ccc(OC)cc3OC)c3ccc(CC)cc3c2=O)cc1 | inactive: 54%
15 | O=C1c2ccccc2C(=O)N1CCCn1nnc(-c2ccc(N3CCOCC3)cc2)n1 | inactive: 74%
16 | Cc1cccc(OCC(=O)Nc2c(C(=O)Nc3ccc(F)cc3)oc3ccccc23)c1 | inactive: 96%
17 | O=C(CN1C(=O)c2ccccc2S1(=O)=O)NC1CCCC1 | inactive: 82%
18 | Cc1cccc(N2C(=O)CSC23C(=O)N(C)c2ccccc23)c1 (stereo unspecified) | inactive: 76%
19 | COc1ccc(NCc2cc3ccc(OC)cc3n(CC(=O)Nc3ccc(C)c(C)c3)c2=O)cc1 | inactive: 93%
20 | C/C(=N\NC(=O)C1CC1(C)c1ccccc1)c1ccco1 (stereo unspecified) | inactive: 106%
21 | COc1cc(NC(=O)NCCc2c(C)nn(C)c2C)cc(OC)c1OC | inactive: 70%
22 | CCCN1CCN(c2nnc(-n3cccc3C(=O)Nc3ccccc3C(F)(F)F)s2)CC1 | inactive: 144%
23 | CCc1ccc(-n2nc(C)c3c(C)cc(=O)n(CC(=O)Nc4cc(Cl)ccc4OC)c32)cc1 | active: 52%

Row | Compound | survival
24 | CCOc1ccc(OCC)c(NC(=O)c2cnn(-c3ccc(F)cc3)c2-n2cccc2)c1 | inactive: 80%
25 | Cc1cccc2c(=O)cc(CSc3ccccc3NC(=O)c3cccc(Cl)c3)[nH]c12 | inactive: 87%
26 | CCOc1ccc(-c2cc3c(=O)n(Cc4nc(-c5ccc(OCC)c(OC)c5)oc4C)ccn3n2)cc1Cl | inactive: 183%
27 | CCCCn1cc2c(c1-c1ccc(Br)cc1)c(=O)n(C)c(=O)n2C | inactive: 58%
28 | Cc1ccc2nc(CSc3nnc(NC(=O)C(C)C)s3)cc(=O)n2c1 | active: -1%
29 | CSc1ccc(C2c3c(-c4ccccc4O)n[nH]c3C(=O)N2Cc2ccncc2)cc1 (stereo unspecified) | inactive: 70%
30 | Cc1ccc(C)n1NC(=O)c1ccc(O)cc1 | inactive: 102%
31 | CCc1ccc(NC(=O)C2CCCN(S(=O)(=O)c3ccc4[nH]c(=O)ccc4c3)C2)cc1 (stereo unspecified) | inactive: 85%
32 | CCC1CN(C(=O)NCc2ccc(F)cc2)c2cc(C)ccc2O1 (stereo unspecified) | inactive: 52%
33 | Cc1ccc(/C=C/C(=O)NCCCn2ccnc2)cc1 | inactive: 80%
34 | CCOC(=O)C1CCN(C(=O)Cn2nc(C)n3c(cc4c(OC)cccc43)c2=O)CC1 | inactive: 87%
35 | COc1cccc(C(c2sc3nc(-c4ccco4)nn3c2O)N2CCC(C)CC2)c1 (stereo unspecified) | inactive: 78%
36 | O=C(CSc1ccnc(=O)[nH]1)NCc1ccc(F)cc1 | inactive: 99%
37 | COc1ccc(C2NCCS2)cc1 (stereo unspecified) | inactive: 65%
38 | COc1ccc(S(=O)(=O)Nc2cccc(-c3ccc(N4CCCCCC4)nn3)c2)cc1OC | inactive: 81%
39 | CC(C)(C)OC(=O)N1CCC(c2c(C(=O)N3CCN(c4cccc(Cl)c4)CC3)cnn2-c2cccc(Cl)c2)CC1 | inactive: 124%
40 | CC(=O)Nc1cc2c(cc1C(=O)c1ccccc1)OCCO2 | inactive: 108%
41 | O=C(NCc1ccccc1)C1CCN(c2ncnc3c2nc2n3CCCCC2)CC1 | inactive: 84%
42 | NC(=O)C1CCN(C(=O)CSc2nccc(-c3ccccc3)n2)CC1 | inactive: 90%
43 | CC1CCCCN1C(=O)C1COc2ccccc2O1 (stereo unspecified) | inactive: 65%
44 | O=C1C2C3C=CC(C3)C2C(=O)N1c1ccc2c(c1)OCO2 (stereo unspecified) | inactive: 73%
45 | CCOC(=O)c1cccc(NC(=O)C2COc3ccc(OC)cc3C2)c1 (stereo unspecified) | inactive: 80%
46 | Cc1ccc(CCNC(=O)C2CC(=O)N(CCc3ccc(C)cc3)C2)cc1 (stereo unspecified) | inactive: 101%

Row | Compound | survival
47 | O=C(NCc1ccc(Cl)cc1)c1ccc2c(c1)nnn2C1CCCC1 | inactive: 92%
48 | CCCCc1ccc(NC(=O)Cn2cnc3c(oc4ccccc43)c2=O)cc1 | inactive: 83%
49 | Cc1ccc(-n2cc(-c3ccccc3)c3c(N4CCC(C)CC4)ncnc32)cc1Cl | inactive: 86%
50 | COc1ccc(C)cc1NC(=O)CSc1nc(=O)n(Cc2ccco2)c2c1CCC2 | inactive: 116%
51 | CCOC(=O)C1CCCN(c2c3c(nc4cc(-c5ccc(C)cc5)nn24)CCC3)C1 (stereo unspecified) | inactive: 105%
52 | Cc1cccc(N(C)S(=O)(=O)c2nnc(NC(=O)C(C)Oc3ccccc3)s2)c1 (stereo unspecified) | inactive: 54%
53 | CN1C(=O)c2ccccc2Sc2ccc(NC(=O)Cc3ccc(Cl)cc3)cc21 | inactive: 119%
54 | COc1ccc(OC)c(CCNC(=O)c2ccc3c(c2)N(Cc2ccccc2)CCS3)c1 | inactive: 83%
55 | COC(=O)c1sccc1S(=O)(=O)N1CCN(c2cccc(C)c2)C(C)C1 (stereo unspecified) | inactive: 88%
56 | CCCSC1=NC2(CCN(C(=O)NC3CCCCC3)CC2)N=C1c1ccc(C)cc1 | inactive: 77%
57 | CN1CCN(NC(=O)c2ccc(Cl)cc2)CC1 | inactive: 80%
58 | COCCNC(=O)c1cn(C(C)c2ccccc2)nn1 (stereo unspecified) | inactive: 106%
59 | Cc1ccccc1NC(=O)CSc1nc2c(oc3ccccc32)c(=O)n1Cc1ccco1 | inactive: 64%
60 | Cc1ccc(C)c(OCc2nc3ccccc3n2C)c1 | inactive: 59%
61 | Cc1nc2nc(NCc3ccccc3Cl)[nH]n2c(=O)c1Cc1ccccc1 | inactive: 83%
62 | CCCC(=O)Nc1ccc(NC(=O)c2ccc(OC)cc2)cn1 | inactive: 101%
63 | CCOC(=O)c1cnc2c(C)cc(C)cc2c1NCCN1CCOCC1 | active: 32%
64 | O=C(Nc1ccccc1OCc1cc(=O)n2ccccc2n1)Nc1ccccc1C(F)(F)F | inactive: 75%
65 | CCOc1ccccc1NC(=O)CCS(=O)(=O)c1ccc2c(c1)oc(=O)n2C | inactive: 92%
66 | CC(C)NC(=O)C1CCCN(c2ncnc3onc(-c4ccc(F)cc4)c23)C1 (stereo unspecified) | inactive: 85%
67 | CCOc1cc(-c2nnc(SCC(=O)NC3CCCCC3)nc2-c2ccc(OC)c(OCC)c2)ccc1OC | inactive: 87%
68 | CC1(C)Cc2ccccc2C2=NNC(=O)C2=N1 | inactive: 52%
69 | COc1ccc(CNC(=O)CCCn2ccc3cc(S(=O)(=O)N4CCCC4)ccc32)cc1 | inactive: 101%

Row | Compound | survival
70 | Cc1ccc(Nc2nc(Cl)nc(N(C)C#N)n2)cc1 | inactive: 108%
71 | COc1ccc2oc(-c3cccc(NC(=O)c4cc([N+](=O)[O-])ccc4N4CCOCC4)c3)nc2c1 | inactive: 49%
72 | CCOC(=O)C(C)Sc1nnc2cc(C)c3ccccc3n12 (stereo unspecified) | inactive: 73%
73 | CCOC(=O)c1[nH]c2c(c1Cc1ccccc1)C(=O)CC(c1ccc(C(C)(C)C)cc1)C2 (stereo unspecified) | inactive: 63%
74 | CCOC(=O)C1CCN(C(=O)c2cnn(-c3ccc(F)cc3)c2-n2cccc2)CC1 | inactive: 73%
75 | COc1ccc(C(=O)Nc2nc3c(s2)Cc2c(Br)ccc(OC)c2-3)cc1OC | active: 36%
76 | Cc1cc(C)cc(N(CC(=O)Nc2c(C)cc(C)cc2C)S(=O)(=O)c2c(C)nn(C)c2C)c1 | active: -5%
77 | CCN(CC)S(=O)(=O)c1cc(-c2ccc(=O)n(C(C)C(=O)Nc3cccc(C#N)c3)n2)ccc1C (stereo unspecified) | inactive: 56%
78 | CCc1ccc(NC(=O)CSc2nnc(CC)c(CC)n2)cc1 | inactive: 72%
79 | Cc1ccc(Cn2c(CN3CCC(C(=O)O)CC3)cc3ccccc32)cc1 | inactive: 95%
80 | CCc1[nH]nc2c1C1(C(=O)Nc3ccc(Cl)cc31)C(C#N)=C(N)O2 (stereo unspecified) | inactive: 78%
81 | COc1ccc(-c2noc(CSc3nnc(Cc4ccccc4)n3-c3ccc(F)cc3)n2)cc1 | inactive: 62%
82 | CN(CC(=O)Nc1ccc(F)cc1F)S(=O)(=O)c1cccc2nsnc12 | inactive: 92%
83 | CCCCN1C2CCCC1CC(NC(=O)C1CCCCC1)C2 (stereo unspecified) | inactive: 51%
84 | CCN(CC)CCCNC(=O)c1sc2nc3n(c(=O)c2c1C)CCCCC3 | inactive: 111%
85 | Cc1ccc(CN2CCC(CNC(=O)c3cnn(-c4ccc(C)cc4)c3C3CCN(C(=O)OC(C)(C)C)CC3)CC2)cc1 | inactive: 97%
86 | CCOC(=O)CN1C(=O)N(c2ccc(C)c(C)c2)S(=O)(=O)c2ccccc21 | inactive: 80%
87 | Cc1ccc(S(=O)(=O)N(CC(=O)Nc2cccnc2)c2cc(Cl)ccc2C)cc1 | inactive: 78%
88 | O=C(CSc1ccccc1)NN1C(=O)c2ccccc2C1=O | inactive: 102%
89 | COc1ccc(NC(=O)CC2C(=O)N(c3ccccc3)C(=O)N2CCc2sccc2C)cc1 (stereo unspecified) | inactive: 65%
90 | Cc1cccc(NC(=O)CCCn2nc(C)c3c(C)n(-c4ccccc4)nc3c2=O)c1C | inactive: 70%
91 | COc1ccc(Nc2ncc3c(n2)CCN(Cc2sccc2C)C3)c(OC)c1 | inactive: 73%
